From PMC9372576
Results are given in words; binding and its absence hold for the method and conditions named. In cells and extracts the contact can be indirect. Some results given as binding are weak or reduced against the parent protein; the word gives no strength. Tags and fused reporters may be left off the sequences shown.

The chains behind the UniProt entries cited, without tags or fusion partners.
UniProt P24375: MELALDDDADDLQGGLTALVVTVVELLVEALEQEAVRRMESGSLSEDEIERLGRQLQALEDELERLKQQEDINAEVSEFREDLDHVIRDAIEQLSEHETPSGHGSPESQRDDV

Biological target: T1, GvpC fused to NGFP or CGFP (Halobacterium salinarum) (UniProt P24574)
T1 sequence: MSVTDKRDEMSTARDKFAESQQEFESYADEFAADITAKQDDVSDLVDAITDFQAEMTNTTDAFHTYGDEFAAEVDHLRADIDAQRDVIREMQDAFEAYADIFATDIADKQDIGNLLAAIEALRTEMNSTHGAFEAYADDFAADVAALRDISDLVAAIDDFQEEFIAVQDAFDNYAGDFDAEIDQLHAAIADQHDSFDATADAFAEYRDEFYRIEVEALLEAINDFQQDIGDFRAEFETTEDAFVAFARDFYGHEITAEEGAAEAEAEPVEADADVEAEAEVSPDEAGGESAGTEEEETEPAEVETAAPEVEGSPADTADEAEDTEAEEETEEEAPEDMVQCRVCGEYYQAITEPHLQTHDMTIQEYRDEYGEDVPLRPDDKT
Test: split reporter; split-GFP (NGFP and CGFP of salt-stable mGFP2) in Hfx. volcanii transformants, 24 h 37 °C then 24 h 30 °C; relative fluorescence (rf) against the wild type; the highest of eight tag combinations is given

binding: binds
Substance: GvpK fused to NGFP or CGFP (from UniProt P24375 1-113)
